Reference: PubChem BioAssay AID180 (DTP/NCI, 2004)
The source holds more than one record for some entries. The other results are left out here. An entry can have further records. The values listed for one entry are repeated measurements across runs, samples, wells, individuals or studies.

System: BDF1 mice, Adenocarcinoma 755 s.c., tumor weight T/C
Experiment: NCI In Vivo Anticancer Drug Screen. Data for tumor model Adenocarcinoma 755 (subcutaneous) in B6D2F1 (BDF1) mice
Conditions: endpoint: mean tumor weight, higher = larger tumour
Description: The antitumor activity of compounds was measured in mice bearing transplantable tumors. Survival or tumor size were measured and the results are expressed as the measurement made in the treated group (T) divided by the measurement made in the vehicle treated control group (C). The tumor model used in this assay is Adenocarcinoma 755 (subcutaneous) in B6D2F1 (BDF1) mice

With `C1CN1P1(N2CC2)=NP(N2CC2)(N2CC2)=NP(N2CC2)(N2CC2)=N1` the T/C (dose: 0.7 mg/kg/injection, schedule: Q01DX011 (ip), vehicle: methylcellulose (MC)) was 58 % of control and 100 % of control, the T/C (dose: 1.5 mg/kg/injection, schedule: Q01DX011 (ip), vehicle: methylcellulose (MC)) was 69 % of control and 97 % of control and the T/C (dose: 3.0 mg/kg/injection, schedule: Q01DX011 (ip), vehicle: methylcellulose (MC)) was 42 % of control and 95 % of control.

For `COc1ccc(/C=N/Nc2nc3c([nH]2)c(=O)n(C)c(=O)n3C)cc1`, the T/C (dose: 240.0 mg/kg/injection, schedule: Q01DX011 (ip), vehicle: carboxymethylcellulose (CMC)) was 117 % of control and 158 % of control.

With `COc1ccc(C[C@H](N)C(=O)NC2C(CO)OC(n3cnc4c(N(C)C)ncnc43)C2O)cc1` (stereo partly specified) the T/C (dose: 39.75 mg/kg/injection, schedule: Q01DX011 (ip), vehicle: carboxymethylcellulose (CMC)) was 16 % of control, 30 % of control, 59 % of control and the T/C (dose: 53.0 mg/kg/injection, schedule: Q01DX011 (ip), vehicle: carboxymethylcellulose (CMC)) was 3 % of control, 16 % of control, 44 % of control.

With `S=P(N1CC1)(N1CC1)N1CC1` the T/C (dose: 0.73 mg/kg/injection, schedule: Q01DX011 (ip), vehicle: carboxymethylcellulose (CMC)) was 80 % of control and 123 % of control, the T/C (dose: 0.96 mg/kg/injection, schedule: Q01DX011 (ip), vehicle: carboxymethylcellulose (CMC)) was 52 % of control and 82 % of control and the T/C (dose: 1.2 mg/kg/injection, schedule: Q01DX011 (ip), vehicle: carboxymethylcellulose (CMC)) was 23 % of control, 79 % of control, 90 % of control.

`CS(=O)(=O)OCCCCOS(C)(=O)=O` was tested, and the T/C (dose: 13.33 mg/kg/injection, schedule: Q01DX011 (ip), vehicle: carboxymethylcellulose (CMC)) was 72 % of control and 109 % of control, the T/C (dose: 20.0 mg/kg/injection, schedule: Q01DX011 (ip), vehicle: saline) was 52 % of control, 79 % of control, 102 % of control and the T/C (dose: 30.0 mg/kg/injection, schedule: Q03DX004 (ip), vehicle: saline) was 16 % of control and 82 % of control. For the same molecule, the T/C (dose: 80.0 mg/kg/injection, schedule: Q01DX011 (sc), vehicle: saline) was 11 % of control and 38 % of control.

For `CCC(=O)c1cc2c(cc1CC)C(C)(C)CCC2(C)C`, the T/C (dose: 50.0 mg/kg/injection, schedule: Q01DX011 (ip), vehicle: carboxymethylcellulose (CMC)) was 57 % of control and 115 % of control and the T/C (dose: 200.0 mg/kg/injection, schedule: Q01DX011 (ip), vehicle: carboxymethylcellulose (CMC)) was 26 % of control and 66 % of control.

`CC(C)OC(=O)C1(N)CCCC1` was tested, and the T/C (dose: 15.0 mg/kg/injection, schedule: Q01DX011 (ip), vehicle: other) was 55 % of control and 109 % of control, the T/C (dose: 28.0 mg/kg/injection, schedule: Q01DX011 (ip), vehicle: carboxymethylcellulose (CMC)) was 39 % of control and 73 % of control and the T/C (dose: 30.0 mg/kg/injection, schedule: Q01DX011 (ip), vehicle: other) was 27 % of control and 77 % of control. For the same molecule, the T/C (dose: 56.0 mg/kg/injection, schedule: Q01DX011 (ip), vehicle: saline) was 10 % of control and 42 % of control and the T/C (dose: 60.0 mg/kg/injection, schedule: Q01DX011 (ip), vehicle: other) was 7 % of control and 51 % of control.

For `C[N+](C)(C)c1ncnc2nc[nH]c12`, the T/C (dose: 5.0 mg/kg/injection, schedule: Q01DX011 (ip), vehicle: saline) was 22 % of control, 74 % of control, 95 % of control and the T/C (dose: 10.0 mg/kg/injection, schedule: Q01DX011 (ip), vehicle: saline) was 1 % of control, 19 % of control, 32 % of control.

`O=P1(N(CCCl)CCCl)NCCCO1` (stereo unspecified) was tested, and the T/C (dose: 15.33 mg/kg/injection, schedule: Q01DX011 (ip), vehicle: carboxymethylcellulose (CMC)) was 13 % of control and 68 % of control.

In the case of `c1ccc(N2CCSCC2)cc1`, the T/C (dose: 27.0 mg/kg/injection, schedule: Q01DX011 (ip), vehicle: methylcellulose (MC)) was 36 % of control and 67 % of control.

For `CCOC(=O)C1=C(C)NC(C)=C(C(=O)OCC)C1C`, the T/C (dose: 250.0 mg/kg/injection, schedule: Q01DX011 (ip), vehicle: other) was 30 % of control and 62 % of control.

With `O=S(=O)(F)c1ncnc2nc[nH]c12` the T/C (dose: 25.0 mg/kg/injection, schedule: Q01DX011 (ip), vehicle: methylcellulose (MC)) was 12 % of control and 114 % of control.

For `c1ccc2c3c(ccc2c1)Sc1ccc2ccccc2c1N3`, the T/C (dose: 110.0 mg/kg/injection, schedule: Q01DX011 (ip), vehicle: other) was 53 % of control and 81 % of control and the T/C (dose: 220.0 mg/kg/injection, schedule: Q01DX011 (ip), vehicle: other) was 53 % of control and 85 % of control.

`CNC=O` was tested, and the T/C (dose: 46.83 mg/kg/injection, schedule: Q01DX011 (ip), vehicle: carboxymethylcellulose (CMC)) was 83 % of control and 124 % of control and the T/C (dose: 171.5 mg/kg/injection, schedule: Q01DX011 (ip), vehicle: carboxymethylcellulose (CMC)) was 45 % of control and 105 % of control.

For `CS(=O)(=O)OCCC(=O)NCCCNC(=O)CCOS(C)(=O)=O`, the T/C (dose: 14.0 mg/kg/injection, schedule: Q01DX011 (ip), vehicle: methylcellulose (MC)) was 61 % of control and 106 % of control, the T/C (dose: 56.0 mg/kg/injection, schedule: Q01DX011 (ip), vehicle: methylcellulose (MC)) was 11 % of control and 100 % of control and the T/C (dose: 112.0 mg/kg/injection, schedule: Q01DX011 (ip), vehicle: methylcellulose (MC)) was 6 % of control and 70 % of control.

For `CN1CC[C@]23c4c5ccc(O)c4O[C@H]2C(=O)CC[C@@]3(O)[C@H]1C5`, the T/C (dose: 9.0 mg/kg/injection, schedule: Q01DX011 (ip), vehicle: methylcellulose (MC)) was 52 % of control, 61 % of control, 82 % of control, the T/C (dose: 18.0 mg/kg/injection, schedule: Q01DX011 (ip), vehicle: methylcellulose (MC)) was 26 % of control, 57 % of control, 77 % of control and the T/C (dose: 36.0 mg/kg/injection, schedule: Q01DX011 (ip), vehicle: methylcellulose (MC)) was 19 % of control and 76 % of control.

With `NC(CCSCc1ccc(N(CCCl)CCCl)cc1)C(=O)O` (stereo unspecified) the T/C (dose: 18.0 mg/kg/injection, schedule: Q01DX011 (ip), vehicle: saline) was 19 % of control and 45 % of control.

For `c1nc(SCCSc2ncnc3nc[nH]c23)c2[nH]cnc2n1`, the T/C (dose: 37.5 mg/kg/injection, schedule: Q01DX011 (ip), vehicle: methylcellulose (MC)) was 18 % of control and 61 % of control.

For `CCCCCCn1cnc2c(=S)nc[nH]c21`, the T/C (dose: 125.0 mg/kg/injection, schedule: Q01DX011 (ip), vehicle: carboxymethylcellulose (CMC)) was 60 % of control and 94 % of control and the T/C (dose: 250.0 mg/kg/injection, schedule: Q01DX011 (ip), vehicle: carboxymethylcellulose (CMC)) was 39 % of control and 69 % of control.

`CC(C)Cn1cnc2c(SCc3ccc(Cl)cc3Cl)nc(N)nc21` was tested, and the T/C (dose: 25.0 mg/kg/injection, schedule: Q01DX011 (ip), vehicle: other) was 41 % of control and 79 % of control, the T/C (dose: 50.0 mg/kg/injection, schedule: Q01DX011 (ip), vehicle: other) was 30 % of control and 80 % of control and the T/C (dose: 100.0 mg/kg/injection, schedule: Q01DX011 (ip), vehicle: other) was 12 % of control and 60 % of control.

With `OCC1OC(n2cnc3c(=S)nc[nH]c32)C(O)C1O` (stereo unspecified) the T/C (dose: 1.87 mg/kg/injection, schedule: Q01DX011 (ip), vehicle: carboxymethylcellulose (CMC)) was 27 % of control and 58 % of control.

In the case of `CN1c2ccc3ccccc3c2Sc2ccc3ccccc3c21`, the T/C (dose: 100.0 mg/kg/injection, schedule: Q01DX011 (ip), vehicle: carboxymethylcellulose (CMC)) was 26 % of control and 60 % of control and the T/C (dose: 225.0 mg/kg/injection, schedule: Q01DX011 (ip), vehicle: carboxymethylcellulose (CMC)) was 20 % of control and 48 % of control.

In the case of `CC(=O)Nc1c(Cl)c(Cl)c2c(c1Cl)C(=O)c1cc(Cl)ccc1-2`, the T/C (dose: 200.0 mg/kg/injection, schedule: Q01DX011 (ip), vehicle: other) was 48 % of control, 54 % of control, 85 % of control.

`CC(=O)N(C)C` was tested, and the T/C (dose: 500.0 mg/kg/injection, schedule: Q01DX001 (ip), vehicle: saline) was 75 % of control and 114 % of control, the T/C (dose: 500.0 mg/kg/injection, schedule: Q01DX011 (sc), vehicle: saline) was 55 % of control and 106 % of control and the T/C (dose: 1000.0 mg/kg/injection, schedule: Q01DX011 (ip), vehicle: saline) was 70 % of control and 105 % of control. For the same molecule, the T/C (dose: 1000.0 mg/kg/injection, schedule: Q01DX011 (oral), vehicle: saline) was 41 % of control and 82 % of control and the T/C (dose: 2000.0 mg/kg/injection, schedule: Q01DX001 (ip), vehicle: saline) was 50 % of control and 86 % of control.

For `Nc1nc(SCc2ccccc2)c2[nH]cnc2n1`, the T/C (dose: 14.0 mg/kg/injection, schedule: Q01DX001 (ip), vehicle: carboxymethylcellulose (CMC)) was 17 % of control, 35 % of control, 47 % of control.

With `CC(=O)O[C@]1(C(C)=O)CC[C@H]2[C@@H]3C[C@H](C)C4=CC(=O)C=C[C@]4(C)[C@@]3(F)[C@@H](O)C[C@@]21C` the T/C (dose: 17.0 mg/kg/injection, schedule: Q01DX011 (sc), vehicle: steriod suspending solution) was 36 % of control and 105 % of control, the T/C (dose: 34.0 mg/kg/injection, schedule: Q01DX011 (sc), vehicle: steriod suspending solution) was 19 % of control and 70 % of control and the T/C (dose: 68.0 mg/kg/injection, schedule: Q01DX011 (sc), vehicle: steriod suspending solution) was 13 % of control and 58 % of control.
